The subject of the assay is Mycobacterium tuberculosis.

Consider `COc1c(OCCCCBr)cc2oc3cc(OCCCCBr)c(CC=C(C)C)c(O)c3c(=O)c2c1CC=C(C)C` [AM-005], for which the MIC100 result is recorded as “NI (no activity at 250 nmol/mL)”.

The values are drawn from patent US20190002429A1, “Derivatives of Xanthone Compounds” (Agency for Science, Technology and Research, priority 2011, published 2019).
